Target: HER3 (human) (UniProt P21860)
Test: PIE-FCCS

median fc (fraction of cross-correlation): 0.1
stoichiometry N: 2
Substance: HER3 (a stretch of the chain, chain not printed) (receptor; other documents disagree on this pair)

From article doi:10.1101/2024.05.03.592409
